Here are results for three molecules from PubChem BioAssay (NCI).

Each structure is given as a SMILES string.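 96-well plates; 48 h exposure; 5 concentrations. Endpoints by linear interpolation between flanking doses. Not reached: highest tested concentration assigned. GI50 marks 50% less growth. The concentration for full growth arrest is given as TGI.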

The experiment deals with NCI-H322M lung. Briefly: inhibition of tumour cell growth, NCI panel, 48 h.

Take `COc1ccc(C(=O)/C=C/c2cccc(Cl)c2Cl)cc1S(N)(=O)=O`: the GI50 was 2.8 µM and the TGI came out at 11.7 µM.

On to `CC(=C(c1ccc(OCCCN(C)C)cc1)c1ccc(OCCCN(C)C)cc1)c1ccccc1`, for which the GI50 was 0.775 µM and the TGI is 3.27 µM.

With `O=C(Nc1nc2ccc([N+](=O)[O-])cc2s1)Nc1ccccc1F`, the GI50 is 10.6 µM and the TGI is 80.6 µM.
